Source: PubChem BioAssay AID1508623 (National Center for Advancing Translational Sciences (NCATS), 2021)
Among all 48,000 compounds or so, about 450 (0.94%) were called active. This list was built around the results that the source calls inconclusive (neither active nor inactive); the mix of calls is not that of the screen. The call rests on the fitted dose curve; in most records, active means well fitted inhibition curve with a large enough effect; inconclusive means small, poorly fitted or top-dose-only effect; inactive means no such curve, though single readings can be large or run the other way. A potency beside an inconclusive call is a rough fit, not a confirmed value.

Assay: Primary qHTS for Identification of Small Molecule Inhibitors of Huntingtin Promoter Activity; further: nearly all actives have a fitted effect of over 50% in size
Conditions: HEK293 HTT promoter firefly luciferase reporter (activity 0% = vehicle and -100% = no light), 24 h; series mostly up to 57.5 µM
Outline: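 Firefly luciferase signal from promoter-reporter HEK293 cells was scaled between vehicle (0%) and zero RLU (-100%). Compounds were tested at final concentrations of up to 57.5 uM over 24 h at 37 degrees C. PTC124 at 50 uM final served as control inhibitor.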
Potency means the concentration at half of the fitted maximal effect; tags describe the fitted curve by direction and shape.

Potency, inconclusive:
CCCCC1C(=O)N(c2ccccc2)N(c2ccc(O)cc2)C1=O (centres undefined) 39.8 µM [inhibitor, single point]
CCOC(=O)c1ccc(CN(Cc2ccc(Cl)cc2Cl)S(=O)(=O)c2cccc(Cl)c2)cc1 39.8 µM [inhibitor, single point]
Cc1cccc(NC(=O)c2ccc(F)c(S(=O)(=O)N3CCN(c4ccc(F)cc4)CC3)c2)c1 17.8 µM [inhibitor, partial curve, poor fit]
O=C(c1cnc(N2CCCCC2)c2ccccc12)N1CCN(c2ccc(F)cc2)CC1 20 µM [inhibitor, single point]
CCOc1ccccc1CNC(=O)c1cc2oc3ccccc3c2n1CC 35.5 µM [inhibitor, single point]
COc1ccc2c(CNCCc3ccccc3OC)c(C(=O)O)n(Cc3ccc(F)cc3Cl)c2c1 22.4 µM [inhibitor, partial curve, poor fit]
CC1=C(C(=O)OC2CCCC2)C(c2ccc(Cl)cc2)CC(=O)N1 (centres undefined) 35.5 µM [inhibitor, single point]
Cc1cc(C)cc(NC(=O)CN(c2cccc(C)c2C)S(=O)(=O)c2ccccc2)c1 22.4 µM [inhibitor, single point]
COc1cccc(N2C(=O)CSC23C(=O)N(Cc2ccccc2F)c2ccccc23)c1 (centres undefined) 39.8 µM [inhibitor, single point]
Cc1cccc(NC(=O)C2CCN(S(=O)(=O)c3c(C)noc3/C=C/c3ccco3)CC2)c1C 0.224 µM [inhibitor, full curve, poor fit]
CSc1ccc(/C=C/c2nc3ccccc3n2S(=O)(=O)c2ccc(F)c(C)c2)cc1 25.1 µM [inhibitor, single point]
CCOc1ccc(NC(=O)CC2C(=O)N(c3cccc(C)c3)C(=O)N2CCC2=CCCCC2)cc1 (centres undefined) 25.1 µM [inhibitor, partial curve, poor fit]
COc1cc(OC)c(NC(=O)CN(C)S(=O)(=O)c2ccc3c(c2)CCCC(=O)N3)cc1Cl 31.6 µM [inhibitor, partial curve, poor fit]
CCCCN(CC)C(=O)C1CCC(CNS(=O)(=O)c2cccc3nsnc23)CC1 (centres undefined) 31.6 µM [inhibitor, partial curve, poor fit]
COc1ccc(Cl)cc1NC(=O)CN1C(=O)CSc2ccc(S(=O)(=O)N3CCCC3)cc21 31.6 µM [inhibitor, partial curve, poor fit]
FC(F)(F)c1ccc(Nc2nc3ccc(Oc4ccnc(-c5ncc(C(F)(F)F)[nH]5)c4)cc3[nH]2)cc1 17.2 µM [inhibitor, partial curve]
CCOC(=O)N1CCN(S(=O)(=O)N2CCCC(C(=O)NCc3ccccc3OC)C2)CC1 (centres undefined) 28.2 µM [inhibitor, single point]
CCOC(=O)c1ccc(CN(Cc2ccc(F)cc2)S(=O)(=O)c2cc(C(=O)Nc3ccccc3CC)ccc2F)cc1 39.8 µM [inhibitor, single point]
Cc1cccc(N2CCN(C(=O)CCCn3ncn4c(cc5occc54)c3=O)CC2)c1C 31.6 µM [inhibitor, partial curve, poor fit]
CCOc1cc(CNCCSc2nnnn2C)cc(Cl)c1OCc1ccc(Cl)cc1 28.2 µM [inhibitor, single point]
O=C(NCC(c1cccnc1)N1CCc2ccccc2C1)C(=O)Nc1cccc(Cl)c1 (centres undefined) 39.8 µM [inhibitor, single point]
COc1ccc(N2CCN(C(=O)CCc3c(C)nc4cc(-c5cccc(F)c5)nn4c3C)CC2)cc1 8.91 µM [inhibitor, partial curve]
COc1cc(C2CC(=O)N(CC(=O)Nc3ccccc3F)c3ccccc3S2)cc(OC)c1OC (centres undefined) 39.8 µM [inhibitor, single point]
Cc1ccc(CCNC(=O)c2ccc(CSc3nc4ccncc4n3Cc3ccc(F)cc3)cc2)cc1 39.8 µM [inhibitor, single point]
Cc1ccc(-n2nc(CO)c(C(=O)NC(C)c3ccccc3)n2)cc1C (centres undefined) 28.2 µM [inhibitor, single point]
COC(=O)c1ccccc1NC(=O)CCc1c(C)nc2cc(-c3ccc(Cl)cc3)nn2c1C 0.355 µM [inhibitor, full curve, poor fit]
O=C(Nc1ccc(F)c(F)c1)c1ccc(F)c(S(=O)(=O)N2CCC3(CC2)OCCO3)c1 17.8 µM [inhibitor, partial curve, poor fit]
O=C(CC1N=C2c3ccccc3N=C(SCc3cccc(F)c3)N2C1=O)NC1CCCCC1 (centres undefined) 39.8 µM [inhibitor, single point]
COc1ccc2cc3c(N)nn(C(=O)c4ccc(F)cc4Cl)c3nc2c1 39.8 µM [inhibitor, single point]
Cc1ccc(Cl)cc1N1CCN(C(=O)c2cc(S(=O)(=O)N3CCCCC3)cn2C)CC1 39.8 µM [inhibitor, single point]
COc1ccccc1CNC(=O)C(=O)NCC(c1cccnc1)N1CCN(c2ccc(F)cc2)CC1 (centres undefined) 14.1 µM [inhibitor, partial curve]
Cc1ccc(-c2nc(S(=O)(=O)c3ccc(C)cc3)c(N3CCCCC3)o2)cc1 25.1 µM [inhibitor, partial curve, poor fit]
COc1ccc(Cl)cc1NC(=O)Cn1nnc(C(=O)NCc2cccs2)c1N 14.1 µM [inhibitor, partial curve]
COc1ccccc1NC(=O)COC(=O)CC(C)(C)CC1=NS(=O)(=O)c2ccccc2N1 22.4 µM [inhibitor, partial curve, poor fit]
CSc1ccc(C2c3[nH]c4ccccc4c3CCN2C(=O)CCC2CCCC2)cc1 (centres undefined) 15.8 µM [inhibitor, partial curve]
CCCCOC(=O)/C(C#N)=C/c1ccc(-c2ccc(Br)cc2)o1 6.31 µM [inhibitor, partial curve, poor fit]
Cc1ccc(N2C(=O)CSC23C(=O)N(CC(=O)Nc2ccc(C)cc2C)c2ccccc23)cc1 (centres undefined) 28.2 µM [inhibitor, single point]
Cc1ccc(C)c(N2CCN(S(=O)(=O)c3ccc4c(c3)CCCN4C(=O)C3CCC3)CC2)c1 39.8 µM [inhibitor, partial curve, poor fit]
Cc1ccc(CSCCC(=O)N2CCN(c3cc(C)ccc3C)CC2)cc1 17.8 µM [inhibitor, partial curve, poor fit]
COc1ccc(-c2noc(CN(C(=O)Cc3ccc(C)cc3)C(C)C)n2)cc1 39.8 µM [inhibitor, single point]
COCCCNC(=O)c1sc2nc(C)c(C(=O)Nc3ccc(C)cc3C)c(-c3ccc(Br)cc3)c2c1N 11.2 µM [inhibitor, partial curve, poor fit]
Cc1ccc(CNS(=O)(=O)c2cc3c(cc2C)N(C)CCO3)cc1 25.1 µM [inhibitor, single point]
COc1cc(C)ccc1OCCSc1nc2ccc(NC(=O)c3cccs3)cc2s1 39.8 µM [inhibitor, single point]
CC(=O)Nc1cccc(NC(=O)CSc2nccn2Cc2ccco2)c1 28.2 µM [inhibitor, single point]
Cc1ccc(CNC(=O)c2cccc(NC(=O)N3CCSc4ncccc43)c2)cc1 31.6 µM [inhibitor, partial curve, poor fit]
Cc1ccc(S(=O)(=O)C(CNC(=O)COc2ccc(Cl)cc2)c2ccco2)cc1 (centres undefined) 39.8 µM [inhibitor, single point]
O=C(Nc1cccc(Cl)c1)c1cc(S(=O)(=O)N2CCCc3ccccc32)ccc1F 31.6 µM [inhibitor, single point]
CNC(=O)c1c(F)cccc1Nc1nc(Nc2cc3c(cc2OC)CCN3C(=O)CN(C)C)nc2[nH]ccc12 27.3 µM [inhibitor, partial curve]

Potency, inactive:
O=C(O)CCSc1nnc(-c2ccc(Cl)cc2Cl)o1
CC(=O)c1ccc(NC(=O)c2nn(C)c3c2CS(=O)(=O)c2ccccc2-3)cc1
Cc1cc(NC(=O)c2ccco2)cc(-c2nc3cc(Cl)ccc3o2)c1O
Cc1ccc(/C=C/c2nc3ccccc3n2S(=O)(=O)c2ccc(Br)cc2)cc1
CCOC(=O)c1cnc2c(ccc3ccccc32)c1Nc1ccc(OC)cc1OC
CCOC(=O)/C=C(C)/C=C/C=C(C)/C=C/c1c(C)cc(OC)c(C)c1C
O=S(=O)(Nc1cccc(-c2ccc(N3CCCCC3)nn2)c1)c1ccc(F)cc1F
CC1(C)Cc2c(-c3ccccc3)c(-c3ccc(Cl)cc3)c(CC(=O)O)n2C1
COc1cccc(N2CC(NC(=O)C3CCCC3)CC2=O)c1 (centres undefined)
CCc1cccc(C)c1NC(=O)c1nc2ccccc2nc1N1CCCCC1
CCc1ccc(NC(=O)CSc2nc3c(sc4ccccc43)c(=O)n2CCN(CC)CC)cc1
